Source: the supplement of paper PMC3334620
The full ranking holds about 33,000 sequences; the median of “E-score (-0.5 to 0.5)” is about -0.016, and the highest 2% start at about 0.32. The list shows a part of the results.

Each sequence was assayed against T1, Stp1 (UniProt B3LFK1) (assay: PBM E-score (8-mer binding enrichment) (E-score (-0.5 to 0.5)); higher = stronger / more preferred TF binding; most listed sequences are background and not binding sites). Details: protein concentration: 200 nM; construct: GST-full length.
T1 sequence: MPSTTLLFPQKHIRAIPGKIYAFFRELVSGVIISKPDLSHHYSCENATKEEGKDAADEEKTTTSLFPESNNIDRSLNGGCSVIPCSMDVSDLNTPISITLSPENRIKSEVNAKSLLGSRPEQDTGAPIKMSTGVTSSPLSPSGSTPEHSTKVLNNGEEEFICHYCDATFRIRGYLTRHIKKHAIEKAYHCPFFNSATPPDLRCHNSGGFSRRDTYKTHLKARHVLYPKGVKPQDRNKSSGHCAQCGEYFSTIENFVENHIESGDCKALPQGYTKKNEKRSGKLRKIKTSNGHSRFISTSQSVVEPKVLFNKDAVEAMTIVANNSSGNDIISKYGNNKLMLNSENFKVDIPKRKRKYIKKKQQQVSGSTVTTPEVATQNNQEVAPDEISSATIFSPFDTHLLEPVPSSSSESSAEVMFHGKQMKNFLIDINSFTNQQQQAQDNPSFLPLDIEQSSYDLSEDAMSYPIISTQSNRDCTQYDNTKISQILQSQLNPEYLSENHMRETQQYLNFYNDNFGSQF
In short: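 Each ungapped eight-base word and its reverse complement, pooled, received an E-score from the Universal PBM Analysis Suite. Underlying scans, normalised with masliner, recorded fluorescent anti-GST bound to GST-tagged yeast transcription factors. These were applied at about 100-200 nM to universal all-10-mer Agilent arrays double-stranded by primer extension.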

Compared with AGGAAGAA, AGCTTTAC is higher in “PBM E-score” value: -0.259 for the first, -0.0906 for the second.

First: AGACTAGG
Second: AACCTCGT
The “PBM E-score” value of the first is lower: -0.184 for the first, -0.0808 for the second.

First: ATCTTAGG
Second: ATCAGATA
The “PBM E-score” value of the first is higher: 0.039 for the first, -0.123 for the second.

Compared with CGGATAGA, CCCACAGA is lower in “PBM E-score” value: 0.228 for the first, -0.23 for the second.

Going from GTGGTGGA to CGATTAGA, the “PBM E-score” value rises from -0.0724 to 0.083.

Going from GGTACCTA to AATCCGAC, the “PBM E-score” value rises from -0.202 to -0.0643.

Going from AGTGGGCG to CGTACTAA, the “PBM E-score” value rises from 0.0679 to 0.169.

First: GAAAGATA
Second: GGTGGCCA
The “PBM E-score” value of the first is higher: 0.0494 for the first, -0.273 for the second.

First: CGCTCCGA
Second: ACAATGGA
The “PBM E-score” value of the first is lower: -0.14 for the first, 0.0567 for the second.

First: ACGCTTCC
Second: CTGTACTC
The “PBM E-score” value of the first is lower: -0.165 for the first, -0.144 for the second.

Compared with CGACTGAA, ACCCCCCA is lower in “PBM E-score” value: -0.144 for the first, -0.342 for the second.

First: GACTAAAC
Second: TCTATACA
The “PBM E-score” value of the first is lower: -0.136 for the first, -0.0883 for the second.

First: CAAGCGTG
Second: CGACACAC
The “PBM E-score” value of the first is lower: -0.0169 for the first, 0.131 for the second.

First: CGGAATGA
Second: AGACAGAG
The “PBM E-score” value of the first is higher: 0.0112 for the first, -0.0784 for the second.

Going from ATGCAGCC to AAGCGAGG, the “PBM E-score” value falls from 0.0762 to -0.0815.

First: GATCGAGA
Second: CAAAACCG
The “PBM E-score” value of the first is lower: -0.0455 for the first, 0.0867 for the second.

First: TACCACGA
Second: CGAAGCTC
The “PBM E-score” value of the first is higher: -0.0388 for the first, -0.0828 for the second.

Going from GGACTCGA to ATACGGTC, the “PBM E-score” value rises from -0.122 to -0.0325.

Compared with ATTGGTTC, ATTGCGCA is lower in “PBM E-score” value: 0.0392 for the first, -0.0299 for the second.

First: GGTATAAA
Second: CCTTCATC
The “PBM E-score” value of the first is higher: 0.0804 for the first, -0.169 for the second.

First: GAATGCTA
Second: GACCGCTA
The “PBM E-score” value of the first is higher: -0.0055 for the first, -0.0445 for the second.

Going from TAACATAA to GCCATTCC, the “PBM E-score” value falls from 0.199 to 0.0785.

Compared with ATTCTGTG, GGCTTCTA is lower in “PBM E-score” value: 0.128 for the first, 0.0649 for the second.

Compared with ACACCACC, AGGCGCAG is higher in “PBM E-score” value: -0.219 for the first, 0.188 for the second.

First: GATATATA
Second: CGCTATGC
The “PBM E-score” value of the first is higher: 0.314 for the first, -0.0383 for the second.

First: TGCTCTAA
Second: ACTACTTC
The “PBM E-score” value of the first is higher: 0.0879 for the first, -0.0239 for the second.

First: CAGTCTAC
Second: CGGCAACC
The “PBM E-score” value of the first is lower: -0.235 for the first, 0.266 for the second.

Going from AGGGAAAT to GAGTGATA, the “PBM E-score” value rises from -0.0351 to 0.102.

First: AACGCCAA
Second: AGAAGGAG
The “PBM E-score” value of the first is higher: 0.0964 for the first, -0.245 for the second.

Compared with CCCGCTCA, ATGGCCGG is lower in “PBM E-score” value: -0.0433 for the first, -0.157 for the second.

First: ACCCAATC
Second: AGAACCAA
The “PBM E-score” value of the first is lower: -0.0735 for the first, -0.0285 for the second.

Going from AGGATTGA to CTGGGCGC, the “PBM E-score” value falls from 0.0457 to 0.025.

First: AGCAATCG
Second: CAATTGGG
The “PBM E-score” value of the first is higher: 0.0561 for the first, -0.00084 for the second.

First: GACTGGCA
Second: ATCTTGTC
The “PBM E-score” value of the first is lower: -0.0279 for the first, 0.136 for the second.

First: CCTTCGCG
Second: CATTATGG
The “PBM E-score” value of the first is higher: 0.0983 for the first, -0.177 for the second.

First: CGCATGGA
Second: CATTGTTA
The “PBM E-score” value of the first is lower: -0.0379 for the first, 0.011 for the second.

Going from CTCTCTGA to CTAACCGA, the “PBM E-score” value rises from -0.237 to -0.0184.

Going from ATGTGGCC to AGTGTGGC, the “PBM E-score” value rises from 0.0349 to 0.068.

Compared with GGAACCCA, CATTCCAG is higher in “PBM E-score” value: -0.122 for the first, -0.0668 for the second.

Compared with AACGCCCG, CATGAAGC is lower in “PBM E-score” value: 0.111 for the first, -0.0775 for the second.

First: ACATTGCA
Second: ACGTTCTG
The “PBM E-score” value of the first is lower: -0.0201 for the first, 0.0555 for the second.

Compared with CCCCGAGG, CGGTTAGA is higher in “PBM E-score” value: -0.247 for the first, -0.181 for the second.

First: GGGCCGAA
Second: CGATCTCA
The “PBM E-score” value of the first is higher: -0.0546 for the first, -0.134 for the second.
